For 21 variants, self-cleavage results are on record in the RNAGym collection of RNA variant scans (doi:10.7554/elife.90254).

The source gives no read counts; variants with many changes may rest on few reads.

To fix the notation:
B1: OR4K15 (parent)
chain: GUUAACGGUCAUAGGCCAUGGAAACUAGGAGCACCAUUUCGCUGCCAGUGAAGAAAUGAACAAAGAAAAUCUGGGCCAGGCAGGCAUCAAAAGAAAUAGUCUUGCGCUCAACCAGAAAGUCUGUAAUCAUUUUAAGGGUA

Variants of B1 are the subject of this data set. Put plainly: self-cleavage, relative activity (ratio to wild type); higher = more cleavage; in vitro, sequencing; the parent is a self-cleaving ribozyme.
With GUUAACGGUCAUAGGCCAUGGAAACUAGGUGCACCAUUUCGCUGCCAGUGAAGGAAUGAACAAAGAAAAUCCGGGCCAGGCAGGCAUCAAAAGAAAUAGUCUUGCGCUCAACCAGAAAGUCUGUAAUCAUUUUAAGGGUA, the self-cleavage turned out to be 0.27.
For GUUAACGGUCAUAGGCCAUGGAAACUAGGUGCACCAUCUCGCUGCCAGUGAAGAAAUGAACAAAGAGAAUCUGGGCCAGGCAGGCAUCAAAAGAAAUAGUCUUGCGCUCAACCAGAAAGCCUGUAAUCAUUUUAAGGGUA the value was 0.84.
For GUUAACGGUCAUAGGCCAUGGAAACUAGGUGCACCAUUUCGCUGCCAGUGAAGAAAUGAACAAAGAAAAUCUGGGCCAGGCAGGCAUCAGAGGAAAUAGUCUUGCGCUCAACCAGAAAGUCUGUAAUCAUUUUAAGGGUA, the self-cleavage was 1.25.
Regarding GUUAACGGUCAUAGGCCAUGGAAACUAGGUGCACCACUUCGCUGCCAGUGAAGAGAUGAACAAAGAAAAUCUGGGCCAGGCAGGCAUCAAAAGAAAUAGUCUUGCGCUCAACCAGAAAGUCUGUAAUCAUUUUAAGGGUA, the self-cleavage came out at 1.01.
For GUUAACGGUCAUAGGCCAUGGAAACUAGGAACACCAUUUCGCUGCCAGUGGAGAAAUGAACAAAGAAAGUCUGGGCCAGGCAGGCAUCAGAAGAAAUAGUCUUGCGCUCAACCAGAAAGUCUGUAAUCAUUUUAAGGGUA the value was 1.71; for GUUAACGGUCAUAGGCCAUGGAAACUAGGAACGCCAUUUCGCUGCCAGUGAAGAAAUGAACAAAGAAAAUCUGGGCCAGGCAGGCAUCAAGAGAAAUAGUCUUGCGCUCAACCAGAAAGUCUGUAAUCAUUUUAAGGGUA, 0.5.
For the variant GUUAACGGUCAUAGGCCAUGGAAACUAGGUGCACCAUUUCGCUGCCAGUAAAGAAAUGAACAAAGAAAACCUGGGCCAGGCAGGCAUCUAAAGAAGUAGUCUUGCGCUCAACCAGAAAGUCUGUAAUCAUUUUAAGGGUA, the self-cleavage was determined as 0.97.
For GUUAACGGUCAUAGGCCAUGGAAACUAGGUGCACCAUUUCGCUGCCAGUGAAGAAACGAACGAAGGAAAUCGGGGCCAGGCAGGCAUCAAAAGAAAUAGUCUUGCGCUCAACCAGAAAGUCUGUAAUCAUUUUAAGGGUA the value was 0.17; for GUUAACGGUCAUAGGCCAUGGAAACUAGGUGCACCAUUUCGCUGCCAGUGAAGAAAUGAACAAAGAAAAUCUGGGCCAGGCAGGCACCAAAAGAAAUAGUCUUGCGCUCAACCAGAAAGUCAGUAAUCAUUUUAAGGGUA, 1.08.
The result for GUUAACGGUCAUAGGCCAUGGAAACUAGGUGCACCACUUCGCUGCCAGUGGAGAAAUGAACAAAGAAAAUCUGGGCCAGGCAGGCAUCAAAAGAAAUAGUCUUGCGCUCAACCAGAAAGUCUGUAAUCAUUUUAAGGGUA reads 1.85; that for GUUAACGGUCAUAGGCCAUGGAAACUAGGUGCACCAUUUCGCUGCCAGUGAAGAAAUGAACAAAUAAAAUCUGGGCCAGGCAGGCAUCAAAAGUAAUAGUCUCGCGCCCAACCAGAAAGUCUGUAAUCAUUUUAAGGGCA, 0.01.
The result for GUUAACGGUCAUAGGCCAUGGAAACUAGGUGCACCAUUUCGCUGCCAGUGAAGAAAUGAACAAAGAAAAUCUGGGCCAGGCAGGCACCAAGAGAAAUAGUCUUGCGCUCAUCCAGAAAGUCUGUAAUCAUUUUAAGGGUA reads 0.03.
In the case of GUUAACGGUCAUAGGCCAUGGAAACUAGGUGCACCAUUUCGCUGCCAGUGAAGAAAUGAACAAAGAAAAUCAGGGCCAGGCAGGCUUCAAAAGAAAUAGUCUUGCGCUCGACCAGAAAGUCUGUAAUCAUUUUAAGGGUA, the self-cleavage is 0.03.
For GUUAACGGUCAUAGGCCAUGGAAACUAGGUGCACCAUUUCGCUGCCAGCGAAGAAGUGAACAAAGAAAAUCUGGGCCAGGCAGGCAUCAAAAGAAAUAGUCUCGCGCUCAACCAGAAAGUCUGUAAUCAUUUUAAGGGUA the value was 0.69.
For the variant GUUAACGGUCAUAGGCCAUGGAAACUAGGUGCACCAUUUCGCUGCCAGUGAAGAAGUGAACAAAGAGUAUCUGGGCCAGGCAGGCAUCAAAAGAAAUAGUCUUGCGCUCAACCAGAAAGUCUGUAAUCAUUUUAAGGGUA, the self-cleavage was 1.54.
For GUUAACGGUCAUAGGCCAUGGAAACUAGGUGCACCAUUUCGCUGCCAGUGAAGAAAUGAACAAAGAGAAUCUGGGCCAGGCAGGCAUCAAAAGAAAUAGUCUUGCGCUCAACCAGAGAGUCUGUAAUCAUUUUAAGGGUA the value was 0.5.
In the case of GUUAACGGUCAUAGGCCAUGGAAACUAGGUGCACCAUUUCGCUGCCAGUGAAGAAGUGAACAAAGAAACUCAGGGCCAGGCAGGCAUCAAAAGAAAUAGUCUUGCGCUCAACCAGAAAGUCUGUAAUCAUUUUAAGGGUA, the self-cleavage amounted to 0.28.
For GUUAACGGUCAUAGGCCAUGGAAACUAGGUGCACCAUUUCGCUGCCAGUGAAGAAAUGAACAAAGAAAAUCUGGGCCAGGCAGGCGUCAAAAGAAAUAGUCUUGCGCUCAACCAGAAUGUCUGUAAUCAUUUUAAGGGUA the value was 0.24; for GUUAACGGUCAUAGGCCAUGGAAACUAGGUGCACCAUUUCGCUGCCAGUGAAGAAAUGAACAAAGAAAAUCUGGGCCAGGCAGGCAUCAAAAGAAAUAGUCUUGCGCUCAACCAGAAAGUCUGUCGUCAUUUUAAGGGUA, 0.81; for GUUAACGGUCAUAGGCCAUGGAAACUAGGUGCACCAUUUCGCUGCCAGUGAAGAAAUGAUCAAGGAAAAUCUGGGCCAAGCAGGCAUCAAAAGAAAUAGUCUUGCGCUCAUCCAGAAAGUCUGUAAUCAUUUUAAGGGUA, 0.04.
The result for GUUAACGGUCAUAGGCCAUGGAAACUAGGUGCACCAUUUCGCUGCCAGUGAAGAAAUGAACAAAGAAAAUCUGGGCCAGGCAGGCAUCAAGAGAAGUAGUCUUGCGCUCAACCUGAAAGUCCGUAAUCAUUUUAAGGGUA reads 0.02.
